The experiment deals with human FGFR3 IIIb on FDCP-1 cells (FDCP-FGFR3 IIIb #122) (human), P22607. In words: cell-based or functional assay.
Chain of human FGFR3 IIIb on FDCP-1 cells (FDCP-FGFR3 IIIb #122) (human), P22607 (P22607 23-806): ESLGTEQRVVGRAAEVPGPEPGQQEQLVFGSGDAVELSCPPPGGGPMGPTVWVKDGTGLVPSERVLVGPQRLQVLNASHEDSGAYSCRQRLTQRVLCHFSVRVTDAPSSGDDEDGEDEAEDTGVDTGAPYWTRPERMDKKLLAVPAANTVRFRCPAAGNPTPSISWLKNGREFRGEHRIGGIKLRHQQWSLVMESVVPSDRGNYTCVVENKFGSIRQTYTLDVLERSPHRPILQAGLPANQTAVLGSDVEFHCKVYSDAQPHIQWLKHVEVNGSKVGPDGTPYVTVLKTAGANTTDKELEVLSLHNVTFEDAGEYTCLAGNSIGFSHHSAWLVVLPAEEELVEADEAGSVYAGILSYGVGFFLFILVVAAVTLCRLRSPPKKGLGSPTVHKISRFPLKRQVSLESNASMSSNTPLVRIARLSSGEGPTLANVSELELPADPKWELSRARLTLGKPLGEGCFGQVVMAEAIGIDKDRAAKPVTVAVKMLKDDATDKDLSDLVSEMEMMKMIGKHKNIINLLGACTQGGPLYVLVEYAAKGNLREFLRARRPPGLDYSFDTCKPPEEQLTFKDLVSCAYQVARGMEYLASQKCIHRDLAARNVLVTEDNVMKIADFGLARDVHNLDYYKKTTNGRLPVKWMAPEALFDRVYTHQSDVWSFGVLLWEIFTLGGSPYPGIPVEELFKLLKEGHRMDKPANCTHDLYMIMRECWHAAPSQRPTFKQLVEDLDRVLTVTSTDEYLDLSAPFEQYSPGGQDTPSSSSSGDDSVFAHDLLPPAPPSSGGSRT

B1: Humanized 15D8 (antibody, human IgG1, kappa)
heavy: EVQLVQSGAEVKKPGESLKISCKGSGYSFTSYNMYWVRQMPGKGLEWMGYIDPYNGGTSYNQKFKGKATLTVDKSISTAYLQWSSLKASDTAMYYCAREGGNYEAWFAYWGQGTLVTVSSASTKGPSVFPLAPSSKSTSGGTAALGCLVKDYFPEPVTVSWNSGALTSGVHTFPAVLQSSGLYSLSSVVTVPSSSLGTQTYICNVNHKPSNTKVDKRV[letters of human IgG1 Fc omitted]
light: DIQLTQSPSSLSASVGDRVTITCSASSSVSYMYWFQQKPGKAPKPLIYLTSYLASGVPSRFSGSGSGTDFTLTISSLQPEDFATYYCQQWSSYPLTFGGGTKVEIKRTVAAPSVFIFPPSDEQLKSGTASVVCLLNNFYPREAKVQWKVDNALQSGNSQESVTEQDSKDSTYSLSSTLTLSKADYEKHKVYACEVTHQGLSSPVTKSFNRGEC
The molecule B1 showed an FDCP FGFR3 IIIb Proliferation IC50, Average IC50 of 3.73 nM.

B2: Chimeric 15D8 (antibody, human IgG1, kappa)
heavy: EIQLQQSGPELVKPGASVKVSCKASGYAFTSYNMYWVKQSHGKSLEWIGYIDPYNGGTSYNQKFKGKATLTVDKSSSTAYMHLNSLTSEDSAVYYCAREGGNYEAWFAYWGQGTLVTVSAASTKGPSVFPLAPSSKSTSGGTAALGCLVKDYFPEPVTVSWNSGALTSGVHTFPAVLQSSGLYSLSSVVTVPSSSLGTQTYICNVNHKPSNTKVDKRV[letters of human IgG1 Fc omitted]
light: QIVLTQSPALMSASPGEKVTMTCSASSSVSYMYWYQQKPRSSPKPWIYLTSYLASGVPARFSGSGSGTSYSLTISSMEAEDAATYYCQQWSSYPLTFGAGTKLELKRTVAAPSVFIFPPSDEQLKSGTASVVCLLNNFYPREAKVQWKVDNALQSGNSQESVTEQDSKDSTYSLSSTLTLSKADYEKHKVYACEVTHQGLSSPVTKSFNRGEC
Consider B2, for which the FDCP FGFR3 IIIb Proliferation IC50, Average IC50 was determined as 1.47 nM.

For the origin of these results see patent US20100003258A1.
